We go through 25 sequences from the supplement of paper PMC11417369.

± gives the standard deviation of the averaged measurements. This is one part of the list.

The assay deals with PfAP2-LT AP2 domain (GST-tagged). The experiment in a line: gcPBM binding intensity (ln(normalized median fluorescence intensity)); higher = stronger DNA binding. The gist of the method: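 Each value is the highest Masliner-normalised natural-log median intensity across replicate spots of either orientation of a probe. The probes were primer-extended double-stranded 36-bp intergenic genomic sequences on an Agilent 4 × 180k array, alongside negative controls, exposed for 1 h to GST-tagged P. falciparum DNA-binding domains expressed in E. coli. Bound protein was picked up with Alexa488 anti-GST antibody and scanned at 488 nm.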
In the case of “GGAAGGATATAACATACACACACACCCATATATATA [CACACA_site9376]”, the “gcPBM binding intensity (ln)” value was 9.76 ± 0.33.
In the case of “TACTTTCACATTAAATGTACGTATAGTTTCATTCTT [XGTACX_site8528]” it was 8.99 ± 0.46; in that of “ATATTAAAAATATATACACACATATATATAAATATA [CACACA_site2257]”, 8.88 ± 0.42; in that of “ATAAATATGGAGCACACACACATAAACATACAGATA [CACACA_site4395]”, 9.84 ± 0.38.
Next, TTTGGAGAATTCATAGTGCATTTATTTATTGTTAAT: 8.68 ± 0.37; “TATATTTAAGTACATAAATAAGCCCATTTACATACA [CACACA_negctrl_site1224]”: 8.57 ± 0.35; “AAAAATATGAAAGTAACTAAGTTGTTATTGATAACA [CACACA_negctrl_site1608]”: 8.63 ± 0.55.
Regarding “ACGTTAGGCTTATTTGCACACTTGTATTATAATTTT [CACACA_site1317]”, the “gcPBM binding intensity (ln)” value worked out at 9.11 ± 0.35.
Next, “ATATTATCACAAGGTGGTACACAAAAAAAAAAAAAA [XGTACX_site8224]”: 8.73 ± 0.54.
Next, “ATAAATATGGCAGTACGTACGTATATTCATATTCAT [XGTACX_site8042]”: 9.04 ± 0.36; “ATTAAAAAAAAAAAAAAAAAACAAAAAAAAAAAAAA [CACACA_negctrl_site1187]”: 8.03 ± 0.49.
Next, “TTTTTTTTTTTTTTTTGTACATATACATATATATAT [XGTACX_site1981]”: 8.76 ± 0.46.
On to “AGTAGCAAATATTAAGTGCATATTATATAATGTGTA [GTGCAC_site9546]”, for which the “gcPBM binding intensity (ln)” value was 8.89 ± 0.48.
In the case of “GGTTTACCCTATAAATGTACTCATAAATTATATATA [XGTACX_site5771]” it was 8.4 ± 0.45.
In the case of “ATACGAAATAGAAACACACATACAATAAATAAATAT [CACACA_site2017]” it was 9.35 ± 0.4; in that of “TGTTCAGTATGGCACACACACAACAAAATAAAAAAA [CACACA_site4368]”, 9.52 ± 0.6.
In the case of “AAAAAAAACATACATACACACACATAAATATATATA [CACACA_site8864]” it was 9.72 ± 0.23.
Turning to “ATGGATTATTTTTAAACATGCAGTAGTGATGAAAAA [TGCATGCA_site346]”, the “gcPBM binding intensity (ln)” value turned out to be 8.61 ± 0.45.
“TGATCAAGTAAGAAAAGTACAAAAAAAGTAAAAAAT [XGTACX_site6529]”: the “gcPBM binding intensity (ln)” value amounted to 8.93 ± 0.58.
In the case of “GTTCTTTCAAATTATACACACCAAAAAAAAAAAAAA [CACACA_site5660]” it was 8.57 ± 0.41; in that of GCGTGTGTACAATGAGTGCATATCTAAAGGGAAGAT, 9.72 ± 0.49.
Consider ATAAGTTTTTATTTTCTGCACTGTCGAATAATAGTT, for which the “gcPBM binding intensity (ln)” value was determined as 8.79 ± 0.49.
Next, “GATATGTTTTATTATGTTGATGATAACAGGTAGTTT [CACACA_negctrl_site356]”: 8.82 ± 0.4; “TCAATGAAATTAATATGTACATATTTTTATATAGTA [XGTACX_site7955]”: 8.52 ± 0.43.
In the case of “TGGCAAAATAGGCACACACACATATACAGATATATT [CACACA_site4727]” it was 9.6 ± 0.37.
